Experimental data from patent US20100260668A1 (published 2010).
One block for each binder: values may come before it.

Columns and labels:
PlGF (Placental GF) = biological target: T1, PlGF (Placental GF) (UniProt P49763-2 21-149, limits assumed); experiment: SPR (Biacore); C-terminal VD
T1 sequence (looked up): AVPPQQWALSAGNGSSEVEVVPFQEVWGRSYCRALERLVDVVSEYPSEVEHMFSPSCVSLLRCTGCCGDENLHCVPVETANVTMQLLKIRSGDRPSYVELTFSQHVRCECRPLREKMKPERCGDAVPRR

HGF = HGF (UniProt P14210 32-728); experiment: SPR (Biacore); N-terminal VD
Chain of HGF (P14210 32-728 limits assumed): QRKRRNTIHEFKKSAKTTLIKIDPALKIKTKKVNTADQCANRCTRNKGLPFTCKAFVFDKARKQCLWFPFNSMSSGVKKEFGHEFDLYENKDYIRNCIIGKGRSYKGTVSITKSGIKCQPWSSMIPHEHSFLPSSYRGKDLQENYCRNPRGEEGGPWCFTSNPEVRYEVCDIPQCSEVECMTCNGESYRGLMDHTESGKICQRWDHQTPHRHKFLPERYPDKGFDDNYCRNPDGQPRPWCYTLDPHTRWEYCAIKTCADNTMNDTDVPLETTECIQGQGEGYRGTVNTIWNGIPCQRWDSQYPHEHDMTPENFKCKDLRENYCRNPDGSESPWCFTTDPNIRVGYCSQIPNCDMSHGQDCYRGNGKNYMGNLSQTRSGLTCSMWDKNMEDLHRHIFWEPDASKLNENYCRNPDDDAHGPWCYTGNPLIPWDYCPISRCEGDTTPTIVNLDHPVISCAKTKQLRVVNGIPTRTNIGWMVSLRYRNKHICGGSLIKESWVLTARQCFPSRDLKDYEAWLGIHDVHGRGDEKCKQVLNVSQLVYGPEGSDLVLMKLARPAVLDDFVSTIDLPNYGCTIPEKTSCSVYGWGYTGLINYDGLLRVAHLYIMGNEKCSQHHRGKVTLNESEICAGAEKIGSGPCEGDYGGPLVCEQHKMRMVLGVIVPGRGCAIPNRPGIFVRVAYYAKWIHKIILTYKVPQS

VEGF = biological target: T2, VEGF (UniProt P15692 27-191, limits assumed); experiment: direct bind ELISA, antigen on plate; N-terminal VD
T2 construct: Bought antigen coated on the ELISA plate; also called vascular endothelial growth factor
T2 sequence (looked up): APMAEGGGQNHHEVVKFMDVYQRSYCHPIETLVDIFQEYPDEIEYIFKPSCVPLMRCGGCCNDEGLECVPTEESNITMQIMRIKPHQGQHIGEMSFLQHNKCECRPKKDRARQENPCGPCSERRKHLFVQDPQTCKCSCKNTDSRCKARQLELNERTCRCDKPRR

[1] = biological target: T3, NRP1 (Neuropilin-1 Npn-1-His tag) (UniProt O14786-2 22-644); experiment: SPR (Biacore); N-terminal VD
IGF-2 = biological target: T4, IGF-2 (UniProt P01344 fragment); experiment: Biacore SPR
T4 construct: Bought reagent

[2] = biological target: T3, NRP1 (Neuropilin-1 Npn-1-His tag); experiment: SPR (Biacore); C-terminal VD
DLL ECD His tag = biological target: T5, DLL ECD His tag (UniProt Q9NR61 fragment, limits assumed); experiment: Biacore SPR
T5 construct: extracellular domain; Bought reagent; also called DLL4; DLL-4; not shown: His tag

Placental GF = biological target: T6, Placental GF (UniProt P49763-2 21-149, limits assumed); experiment: Biacore SPR
T6 construct: Bought reagent; also called PlGF; PLGF
T6 sequence (looked up): T1 sequence (looked up)

Kd (PlGF (Placental GF)): 0.33 nM
koff (PlGF (Placental GF)): 9.87e-05 s⁻¹
kon (PlGF (Placental GF)): 299000 M⁻¹ s⁻¹
B1: DVD259 (bispecific antibody, human IgG1, kappa)
heavy: EVQLVESGGGLVQPGGSLRLSCAASGYTFTNYGMNWVRQAPGKGLEWVGWINTYTGEPTYAADFKRRFTFSLDTSKSTAYLQMNSLRAEDTAVYYCAKYPHYYGSSHWYFDVWGQGTLVTVSSASTKGPQVQLQQSGAELVKPGASVKISCKASGYTFTDYYINWVKLAPGQGLEWIGWIYPGSGNTKYNEKFKGKATLTIDTSSSTAYMQLSSLTSEDTAVYFCVRDSPFFDYWGQGTLLTVSS[omitted - human IgG1 constant region]
light: DIQMTQSPSSLSASVGDRVTITCSASQDISNYLNWYQQKPGKAPKVLIYFTSSLHSGVPSRFSGSGSGTDFTLTISSLQPEDFATYYCQQYSTVPWTFGQGTKVEIKRTVAAPDIVLTQSPDSLAVSLGERVTMNCKSSQSLLNSGMRKSFLAWYQQKPGQSPKLLIYWASTRESGVPDRFTGSGSGTDFTLTISSVQAEDVAVYYCKQSYHLFTFGSGTKLEIKRTVAAPSVFIFPPSDEQLKSGTASVVCLLNNFYPREAKVQWKVDNALQSGNSQESVTEQDSKDSTYSLSSTLTLSKADYEKHKVYACEVTHQGLSSPVTKSFNRGEC
notes: N-terminal VD VEGF, C-terminal VD PlGF; also called VD259H; VD259L

Kd (HGF): < 0.0236 nM
koff (HGF): 0.000236 s⁻¹
kon (HGF): > 1e+07 M⁻¹ s⁻¹
B2: DVD046 (bispecific antibody, human IgG1, kappa)
heavy: QVQLVESGGGLVKPGGSLRLSCAASGFTFSDYYMSWIRQAPGKGLEWVSYISSSGSTIYYADSVKGRFTISRDNAKNSLYLQMNSLRAEDTAVYYCARDEYNSGWYVLFDYWGQGTLVTVSSASTKGPEVQLVESGGGLVQPGGSLRLSCAASGYTFTNYGMNWVRQAPGKGLEWVGWINTYTGEPTYAADFKRRFTFSLDTSKSTAYLQMNSLRAEDTAVYYCAKYPHYYGSSHWYFDVWGQGTLVTVSS[omitted - human IgG1 constant region]
light: DIQMTQSPSSVSASVGDRVTITCRASQGISSWLAWYQQKPGKAPNLLIYEASSLQSGVPSRFGGSGSGTDFTLTISSLQPEDFATYYCQQANGFPWTFGQGTKVEIKRTVAAPDIQMTQSPSSLSASVGDRVTITCSASQDISNYLNWYQQKPGKAPKVLIYFTSSLHSGVPSRFSGSGSGTDFTLTISSLQPEDFATYYCQQYSTVPWTFGQGTKVEIKRTVAAPSVFIFPPSDEQLKSGTASVVCLLNNFYPREAKVQWKVDNALQSGNSQESVTEQDSKDSTYSLSSTLTLSKADYEKHKVYACEVTHQGLSSPVTKSFNRGEC
notes: N-terminal VD HGF, C-terminal VD VEGF; also called DVD046H; DVD046L

EC50 (VEGF): 19.2 nM
B3: DVD592 (bispecific antibody, human IgG1, kappa)
heavy: EVQLVESGGGLVQPGGSLRLSCAASGFTINASWIHWVRQAPGKGLEWVGAIYPYSGYTNYADSVKGRFTISADTSKNTAYLQMNSLRAEDTAVYYCARWGHSTSPWAMDYWGQGTLVTVSSASTKGPSVFPLAPQVQLQQSGAELVKPGASVKISCKASGYTFTDYYINWVKLAPGQGLEWIGWIYPGSGNTKYNEKFKGKATLTIDTSSSTAYMQLSSLTSEDTAVYFCVRDSPFFDYWGQGTLLTVSS[omitted - human IgG1 constant region]
light: DIQMTQSPSSLSASVGDRVTITCRASQVIRRSLAWYQQKPGKAPKLLIYAASNLASGVPSRFSGSGSGTDFTLTISSLQPEDFATYYCQQSNTSPLTFGQGTKVEIKRTVAAPDIVLTQSPDSLAVSLGERVTMNCKSSQSLLNSGMRKSFLAWYQQKPGQSPKLLIYWASTRESGVPDRFTGSGSGTDFTLTISSVQAEDVAVYYCKQSYHLFTFGSGTKLEIKRTVAAPSVFIFPPSDEQLKSGTASVVCLLNNFYPREAKVQWKVDNALQSGNSQESVTEQDSKDSTYSLSSTLTLSKADYEKHKVYACEVTHQGLSSPVTKSFNRGEC
notes: DVD-Ig, N-terminal VEGF (AB071), C-terminal PlGF (AB047); HC linker long, LC linker short; also called DVD592VH; DVD592VL

Kd [1]: 1.44 nM
koff [1]: 0.000261 s⁻¹
kon [1]: 182000 M⁻¹ s⁻¹
B4: DVD050 (bispecific antibody, human IgG1, kappa)
heavy: EVQLVESGGGLVQPGGSLRLSCAASGFSFSSEPISWVRQAPGKGLEWVSSITGKNGYTYYADSVKGRFTISADTSKNTAYLQMNSLRAEDTAVYYCARWGKKVYGMDVWGQGTLVTVSSASTKGPEVQLVESGGGLVQPGGSLRLSCAASGYTFTNYGMNWVRQAPGKGLEWVGWINTYTGEPTYAADFKRRFTFSLDTSKSTAYLQMNSLRAEDTAVYYCAKYPHYYGSSHWYFDVWGQGTLVTVSS[omitted - human IgG1 constant region]
light: DIQMTQSPSSLSASVGDRVTITCRASQSISSYLAWYQQKPGKAPKLLIYGASSRASGVPSRFSGSGSGTDFTLTISSLQPEDFATYYCQQYMSVPITFGQGTKVEIKRTVAAPDIQMTQSPSSLSASVGDRVTITCSASQDISNYLNWYQQKPGKAPKVLIYFTSSLHSGVPSRFSGSGSGTDFTLTISSLQPEDFATYYCQQYSTVPWTFGQGTKVEIKRTVAAPSVFIFPPSDEQLKSGTASVVCLLNNFYPREAKVQWKVDNALQSGNSQESVTEQDSKDSTYSLSSTLTLSKADYEKHKVYACEVTHQGLSSPVTKSFNRGEC
notes: N-terminal VD NRP1, C-terminal VD VEGF; also called DVD050H; DVD050L

Kd (IGF-2): 0.998 pM
koff (IGF-2): 5.18e-06 s⁻¹
kon (IGF-2): 5.2e+06 M⁻¹ s⁻¹
B5: DVD042 (bispecific antibody, human IgG1, kappa)
heavy: QVQLVQSGAEVKKPGASVKVSCKASGYTFTSYDINWVRQATGQGLEWMGWMNPNSGNTGYAQKFQGRVTMTRNTSISTAYMELSSLRSEDTAVYYCARDPYYYYYGMDVWGQGTTVTVSSASTKGPEVQLVESGGGLVQPGGSLRLSCAASGYTFTNYGMNWVRQAPGKGLEWVGWINTYTGEPTYAADFKRRFTFSLDTSKSTAYLQMNSLRAEDTAVYYCAKYPHYYGSSHWYFDVWGQGTLVTVSS[omitted - human IgG1 constant region]
light: QSVLTQPPSVSAAPGQKVTISCSGSSSNIENNHVSWYQQLPGTAPKLLIYDNNKRPSGIPDRFSGSKSGTSATLGITGLQTGDEADYYCETWDTSLSAGRVFGGGTKLTVLGQPKAAPDIQMTQSPSSLSASVGDRVTITCSASQDISNYLNWYQQKPGKAPKVLIYFTSSLHSGVPSRFSGSGSGTDFTLTISSLQPEDFATYYCQQYSTVPWTFGQGTKVEIKRTVAAPSVFIFPPSDEQLKSGTASVVCLLNNFYPREAKVQWKVDNALQSGNSQESVTEQDSKDSTYSLSSTLTLSKADYEKHKVYACEVTHQGLSSPVTKSFNRGEC
notes: N-terminal VD IGF1,2, C-terminal VD VEGF; also called DVD042H; DVD042L

Kd [2]: 1.28 nM
koff [2]: 0.000181 s⁻¹
kon [2]: 142000 M⁻¹ s⁻¹
B6: DVD049 (bispecific antibody, human IgG1, kappa)
heavy: EVQLVESGGGLVQPGGSLRLSCAASGYTFTNYGMNWVRQAPGKGLEWVGWINTYTGEPTYAADFKRRFTFSLDTSKSTAYLQMNSLRAEDTAVYYCAKYPHYYGSSHWYFDVWGQGTLVTVSSASTKGPEVQLVESGGGLVQPGGSLRLSCAASGFSFSSEPISWVRQAPGKGLEWVSSITGKNGYTYYADSVKGRFTISADTSKNTAYLQMNSLRAEDTAVYYCARWGKKVYGMDVWGQGTLVTVSS[omitted - human IgG1 constant region]
light: DIQMTQSPSSLSASVGDRVTITCSASQDISNYLNWYQQKPGKAPKVLIYFTSSLHSGVPSRFSGSGSGTDFTLTISSLQPEDFATYYCQQYSTVPWTFGQGTKVEIKRTVAAPDIQMTQSPSSLSASVGDRVTITCRASQSISSYLAWYQQKPGKAPKLLIYGASSRASGVPSRFSGSGSGTDFTLTISSLQPEDFATYYCQQYMSVPITFGQGTKVEIKRTVAAPSVFIFPPSDEQLKSGTASVVCLLNNFYPREAKVQWKVDNALQSGNSQESVTEQDSKDSTYSLSSTLTLSKADYEKHKVYACEVTHQGLSSPVTKSFNRGEC
notes: N-terminal VD VEGF, C-terminal VD NRP1; also called DVD049H; DVD049L

Kd (DLL ECD His tag): 0.234 nM
koff (DLL ECD His tag): 0.000196 s⁻¹
kon (DLL ECD His tag): 835000 M⁻¹ s⁻¹
Kd (Placental GF): 0.367 nM
koff (Placental GF): 0.000111 s⁻¹
kon (Placental GF): 302000 M⁻¹ s⁻¹
B7: DVD257 (bispecific antibody, human IgG1, kappa)
heavy: EVQLVESGGGLVQPGGSLRLSCAASGFTFTDNWISWVRQAPGKGLEWVGYISPNSGFTYYADSVKGRFTISADTSKNTAYLQMNSLRAEDTAVYYCARDNFGGYFDYWGQGTLVTVSSASTKGPQVQLQQSGAELVKPGASVKISCKASGYTFTDYYINWVKLAPGQGLEWIGWIYPGSGNTKYNEKFKGKATLTIDTSSSTAYMQLSSLTSEDTAVYFCVRDSPFFDYWGQGTLLTVSS[omitted - human IgG1 constant region]
light: DIQMTQSPSSLSASVGDRVTITCRASQDVSTAVAWYQQKPGKAPKLLIYSASFLYSGVPSRFSGSGSGTDFTLTISSLQPEDFATTYYCQQSYTGTVTFGQGTKVEIKRTVAAPDIVLTQSPDSLAVSLGERVTMNCKSSQSLLNSGMRKSFLAWYQQKPGQSPKLLIYWASTRESGVPDRFTGSGSGTDFTLTISSVQAEDVAVYYCKQSYHLFTFGSGTKLEIKRTVAAPSVFIFPPSDEQLKSGTASVVCLLNNFYPREAKVQWKVDNALQSGNSQESVTEQDSKDSTYSLSSTLTLSKADYEKHKVYACEVTHQGLSSPVTKSFNRGEC
notes: N-terminal VD DLL4, C-terminal VD PlGF; also called 7H; VD257L

EC50 (VEGF): 17 nM
B8: DVD600 (bispecific antibody, human IgG1, kappa)
heavy: EVQLVESGGGLVQPGGSLRLSCAASGFTINASWIHWVRQAPGKGLEWVGAIYPYSGYTNYADSVKGRFTISADTSKNTAYLQMNSLRAEDTAVYYCARWGHSTSPWAMDYWGQGTLVTVSSASTKGPQVQLQQSGAELVKPGASVKISCKASGYTFTDYYINWVKLAPGQGLEWIGWIYPGSGNTKYNEKFKGKATLTIDTSSSTAYMQLSSLTSEDTAVYFCVRDSPFFDYWGQGTLLTVSS[omitted - human IgG1 constant region]
light: DIQMTQSPSSLSASVGDRVTITCRASQVIRRSLAWYQQKPGKAPKLLIYAASNLASGVPSRFSGSGSGTDFTLTISSLQPEDFATYYCQQSNTSPLTFGQGTKVEIKRTVAAPSVFIFPPDIVLTQSPDSLAVSLGERVTMNCKSSQSLLNSGMRKSFLAWYQQKPGQSPKLLIYWASTRESGVPDRFTGSGSGTDFTLTISSVQAEDVAVYYCKQSYHLFTFGSGTKLEIKRTVAAPSVFIFPPSDEQLKSGTASVVCLLNNFYPREAKVQWKVDNALQSGNSQESVTEQDSKDSTYSLSSTLTLSKADYEKHKVYACEVTHQGLSSPVTKSFNRGEC
notes: DVD-Ig, N-terminal VEGF (AB071), C-terminal PlGF (AB047); HC linker short, LC linker long; also called DVD600VH; DVD600VL
